Test results from the supplement of paper PMC9588766.
Where a name gives a salt, the structure may show the parent alone. In all, about 1,900 compounds were measured (“cell viability of compound + 1 nM pemigatinib relative to pemigatinib-only (DMSO) wells”: median about 0.95, lowest 2% from about 0.22 on). The list shows a part of the results.

System: PDC-DUC18828
Assay: cell viability of compound + 1 nM pemigatinib relative to pemigatinib-only (DMSO) wells (fraction); PDC-DUC18828 is a patient-derived cholangiocarcinoma cell line; higher = less growth inhibition
Conditions: first compound 1 µM; pemigatinib concentration 1 nM; 72 h
Experimental: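 Selleck Bioactive library screen in the patient-derived FGFR2 fusion-positive ICC cell line PDC-DUC18828 (500 cells/well). Each compound was tested at 1 uM with 1 nM pemigatinib, in triplicate, for 72 h. Viability was read by CellTiter-Glo and normalised to plate DMSO controls. Value is the paper's averaged normalised viability.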

First: CCCCc1ncc(/C=C(\Cc2cccs2)C(=O)O)n1Cc1ccc(C(=O)O)cc1 [Eprosartan Mesylate] + CCN1C(=O)N(c2c(F)c(OC)cc(OC)c2F)Cc2cnc3[nH]c(CN4CCOCC4)cc3c21 [pemigatinib]
Second: CCOc1nc2cccc(C(=O)O)c2n1Cc1ccc(-c2ccccc2-c2nnn[nH]2)cc1 [Candesartan] + CCN1C(=O)N(c2c(F)c(OC)cc(OC)c2F)Cc2cnc3[nH]c(CN4CCOCC4)cc3c21 [pemigatinib]
The cell viability of the first is lower: 0.975 for the first, 1.1 for the second.

First: CN1CCN2c3ccccc3Cc3ccccc3C2C1 (centres undefined) [Mianserin HCl] + CCN1C(=O)N(c2c(F)c(OC)cc(OC)c2F)Cc2cnc3[nH]c(CN4CCOCC4)cc3c21 [pemigatinib]
Second: Oc1cc2c(cc1O)C(c1ccccc1)CNCC2 (centres undefined) + CCN1C(=O)N(c2c(F)c(OC)cc(OC)c2F)Cc2cnc3[nH]c(CN4CCOCC4)cc3c21 [pemigatinib]
The cell viability of the first is higher: 1.04 for the first, 0.944 for the second.

Going from CN1CCCN(C(=O)c2cccc(-c3ccc(/C=C4/C(=O)Nc5ccc(Cl)cc54)o3)c2)CC1 + CCN1C(=O)N(c2c(F)c(OC)cc(OC)c2F)Cc2cnc3[nH]c(CN4CCOCC4)cc3c21 [pemigatinib] to C=CC(=O)Nc1cccc(Oc2nc(Nc3ccc(N4CCN(C)CC4)cc3)ncc2Cl)c1 + CCN1C(=O)N(c2c(F)c(OC)cc(OC)c2F)Cc2cnc3[nH]c(CN4CCOCC4)cc3c21 [pemigatinib], the cell viability rises from 0.587 to 0.608.

Compared with CCCCCCCCOc1ccccc1C(=O)Nc1ccc(C(=O)OCC[N+](C)(CC)CC)cc1 [Otilonium Bromide] + CCN1C(=O)N(c2c(F)c(OC)cc(OC)c2F)Cc2cnc3[nH]c(CN4CCOCC4)cc3c21 [pemigatinib], CCCCc1oc2ccc(NS(C)(=O)=O)cc2c1C(=O)c1ccc(OCCCN(CCCC)CCCC)cc1 [Dronedarone HCl] + CCN1C(=O)N(c2c(F)c(OC)cc(OC)c2F)Cc2cnc3[nH]c(CN4CCOCC4)cc3c21 [pemigatinib] is higher in cell viability: 0.927 for the first, 1.02 for the second.

First: O=C1CC[C@@H](C(=O)N2CSC[C@H]2C(=O)O)N1 [Pidotimod] + CCN1C(=O)N(c2c(F)c(OC)cc(OC)c2F)Cc2cnc3[nH]c(CN4CCOCC4)cc3c21 [pemigatinib]
Second: CCCCNc1ncc(C(=O)NCc2ccc(-n3ccnc3)cc2)c(NC2CCC(O)CC2)n1 (centres undefined) + CCN1C(=O)N(c2c(F)c(OC)cc(OC)c2F)Cc2cnc3[nH]c(CN4CCOCC4)cc3c21 [pemigatinib]
The cell viability of the first is lower: 0.818 for the first, 0.849 for the second.

Compared with Oc1c(Cl)cc(Cl)c2cccnc12 [Chloroxine] + CCN1C(=O)N(c2c(F)c(OC)cc(OC)c2F)Cc2cnc3[nH]c(CN4CCOCC4)cc3c21 [pemigatinib], Clc1cccc(Cl)c1NC1=NCCN1 [Clonidine HCl] + CCN1C(=O)N(c2c(F)c(OC)cc(OC)c2F)Cc2cnc3[nH]c(CN4CCOCC4)cc3c21 [pemigatinib] is lower in cell viability: 0.988 for the first, 0.91 for the second.

Going from c1ccc(-c2ccc(C(c3ccccc3)n3ccnc3)cc2)cc1 (centres undefined) [Bifonazole] + CCN1C(=O)N(c2c(F)c(OC)cc(OC)c2F)Cc2cnc3[nH]c(CN4CCOCC4)cc3c21 [pemigatinib] to Cc1nc2c([nH]1)-c1ccccc1N(C(=O)c1ccc(NC(=O)c3ccccc3-c3ccccc3)cc1)CC2 [Conivaptan HCl] + CCN1C(=O)N(c2c(F)c(OC)cc(OC)c2F)Cc2cnc3[nH]c(CN4CCOCC4)cc3c21 [pemigatinib], the cell viability rises from 0.889 to 1.04.

Going from COc1ccc(Cl)cc1NC(=O)Nc1cc(C)nc2ccccc12 + CCN1C(=O)N(c2c(F)c(OC)cc(OC)c2F)Cc2cnc3[nH]c(CN4CCOCC4)cc3c21 [pemigatinib] to CC(C)(C)c1cc(C(C)(C)C)c(NC(=O)c2c[nH]c3ccccc3c2=O)cc1O [Ivacaftor (VX-770)] + CCN1C(=O)N(c2c(F)c(OC)cc(OC)c2F)Cc2cnc3[nH]c(CN4CCOCC4)cc3c21 [pemigatinib], the cell viability falls from 0.959 to 0.904.

Compared with CN(C)CCC(c1ccc(Br)cc1)c1ccccn1 (centres undefined) [Brompheniramine hydrogen maleate] + CCN1C(=O)N(c2c(F)c(OC)cc(OC)c2F)Cc2cnc3[nH]c(CN4CCOCC4)cc3c21 [pemigatinib], CCC1(c2ccccc2)C(=O)NCNC1=O [Primidone] + CCN1C(=O)N(c2c(F)c(OC)cc(OC)c2F)Cc2cnc3[nH]c(CN4CCOCC4)cc3c21 [pemigatinib] is higher in cell viability: 0.949 for the first, 0.993 for the second.

Going from O=C(Nc1cccnc1)c1cc(-c2ccnc(F)c2)ccc1OCc1ccccc1 + CCN1C(=O)N(c2c(F)c(OC)cc(OC)c2F)Cc2cnc3[nH]c(CN4CCOCC4)cc3c21 [pemigatinib] to COc1ccc2c(Oc3ccc(NC(=O)c4c(C)n(CC(C)(C)O)n(-c5ccccc5)c4=O)nc3)ccnc2c1 + CCN1C(=O)N(c2c(F)c(OC)cc(OC)c2F)Cc2cnc3[nH]c(CN4CCOCC4)cc3c21 [pemigatinib], the cell viability falls from 0.914 to 0.827.

Compared with COc1cc(Nc2c(C#N)cnc3cc(OCCCN4CCN(C)CC4)c(OC)cc23)c(Cl)cc1Cl [Bosutinib (SKI-606)] + CCN1C(=O)N(c2c(F)c(OC)cc(OC)c2F)Cc2cnc3[nH]c(CN4CCOCC4)cc3c21 [pemigatinib], C=CC(=O)Nc1cccc(Sc2nc(Nc3ccc(N4CCN(C)CC4)cc3)ncc2Cl)c1 + CCN1C(=O)N(c2c(F)c(OC)cc(OC)c2F)Cc2cnc3[nH]c(CN4CCOCC4)cc3c21 [pemigatinib] is lower in cell viability: 0.762 for the first, 0.75 for the second.

Compared with Nc1ncnc2c1ncn2[C@@H]1O[C@H](CO)[C@@H](O)[C@@H]1O [Vidarabine] + CCN1C(=O)N(c2c(F)c(OC)cc(OC)c2F)Cc2cnc3[nH]c(CN4CCOCC4)cc3c21 [pemigatinib], Cc1ccc([C@@H]2O[C@H](CO)[C@@H](O)[C@H](O)[C@H]2O)cc1Cc1ccc(-c2ccc(F)cc2)s1 [Canagliflozin] + CCN1C(=O)N(c2c(F)c(OC)cc(OC)c2F)Cc2cnc3[nH]c(CN4CCOCC4)cc3c21 [pemigatinib] is lower in cell viability: 0.988 for the first, 0.906 for the second.

Going from CC1CCN(CC[C@H]2CCCN2S(=O)(=O)c2cccc(O)c2)CC1 + CCN1C(=O)N(c2c(F)c(OC)cc(OC)c2F)Cc2cnc3[nH]c(CN4CCOCC4)cc3c21 [pemigatinib] to CC(C)NC[C@@H](C(=O)N1CCN(c2ncnc3c2[C@H](C)C[C@H]3O)CC1)c1ccc(Cl)cc1 + CCN1C(=O)N(c2c(F)c(OC)cc(OC)c2F)Cc2cnc3[nH]c(CN4CCOCC4)cc3c21 [pemigatinib], the cell viability falls from 0.924 to 0.87.

Going from C[C@@](Cc1ccc(O)c(O)c1)(NN)C(=O)O [Carbidopa] + CCN1C(=O)N(c2c(F)c(OC)cc(OC)c2F)Cc2cnc3[nH]c(CN4CCOCC4)cc3c21 [pemigatinib] to CCCCCCCCCCCCCCCC(=O)OC[C@H](O)[C@H]1OC(=O)C(O)=C1O [L-Ascorbyl 6-palmitate] + CCN1C(=O)N(c2c(F)c(OC)cc(OC)c2F)Cc2cnc3[nH]c(CN4CCOCC4)cc3c21 [pemigatinib], the cell viability falls from 0.983 to 0.881.

Cn1c(=O)c2c(ncn2CC2OCCO2)n(C)c1=O [Doxofylline] + CCN1C(=O)N(c2c(F)c(OC)cc(OC)c2F)Cc2cnc3[nH]c(CN4CCOCC4)cc3c21 [pemigatinib] and Nc1nc2c(ncn2COC(CO)CO)c(=O)[nH]1 [Ganciclovir] + CCN1C(=O)N(c2c(F)c(OC)cc(OC)c2F)Cc2cnc3[nH]c(CN4CCOCC4)cc3c21 [pemigatinib] are the same in cell viability: 0.967 for the first, 0.967 for the second.

Compared with COCC(=O)NC/C=C/c1ccc2ncnc(Nc3ccc(Oc4ccc(C)nc4)c(C)c3)c2c1 + CCN1C(=O)N(c2c(F)c(OC)cc(OC)c2F)Cc2cnc3[nH]c(CN4CCOCC4)cc3c21 [pemigatinib], Cc1csc(-c2nnc(Nc3ccc(Oc4ncccc4-c4ccnc(N)n4)cc3)c3ccccc23)c1 + CCN1C(=O)N(c2c(F)c(OC)cc(OC)c2F)Cc2cnc3[nH]c(CN4CCOCC4)cc3c21 [pemigatinib] is lower in cell viability: 0.973 for the first, 0.604 for the second.

Going from COc1cccc(C=NCCN=Cc2cccc(OC)c2[O-])c1[O-].[Cl-].[Mn+3] + CCN1C(=O)N(c2c(F)c(OC)cc(OC)c2F)Cc2cnc3[nH]c(CN4CCOCC4)cc3c21 [pemigatinib] to c1ccc2c(CCNc3ccc(Nc4ccncc4)cc3)c[nH]c2c1 + CCN1C(=O)N(c2c(F)c(OC)cc(OC)c2F)Cc2cnc3[nH]c(CN4CCOCC4)cc3c21 [pemigatinib], the cell viability rises from 0.943 to 0.994.

Compared with CCOC(=O)[C@H]1O[C@@H]1C(=O)N[C@@H](CC(C)C)C(=O)NCCC(C)C [Aloxistatin] + CCN1C(=O)N(c2c(F)c(OC)cc(OC)c2F)Cc2cnc3[nH]c(CN4CCOCC4)cc3c21 [pemigatinib], CC(C)CCNC(=O)[C@H](CC(C)C)NC(=O)[C@H]1O[C@@H]1C(=O)O [Loxistatin Acid (E-64C)] + CCN1C(=O)N(c2c(F)c(OC)cc(OC)c2F)Cc2cnc3[nH]c(CN4CCOCC4)cc3c21 [pemigatinib] is higher in cell viability: 0.992 for the first, 1.02 for the second.

First: NCCCCCC(=O)O [(6-)ε-Aminocaproic acid] + CCN1C(=O)N(c2c(F)c(OC)cc(OC)c2F)Cc2cnc3[nH]c(CN4CCOCC4)cc3c21 [pemigatinib]
Second: C[C@]12C=CC(=O)N[C@@H]1CC[C@@H]1[C@@H]2CC[C@]2(C)[C@@H](C(=O)Nc3cc(C(F)(F)F)ccc3C(F)(F)F)CC[C@@H]12 [Dutasteride] + CCN1C(=O)N(c2c(F)c(OC)cc(OC)c2F)Cc2cnc3[nH]c(CN4CCOCC4)cc3c21 [pemigatinib]
The cell viability of the first is higher: 0.965 for the first, 0.943 for the second.

Compound CN(C)S(=O)(=O)c1ccc2c(c1)/C(=C/c1cc3c([nH]1)CCCC3)C(=O)N2 + CCN1C(=O)N(c2c(F)c(OC)cc(OC)c2F)Cc2cnc3[nH]c(CN4CCOCC4)cc3c21 [pemigatinib] has a cell viability of 0.917.
